Results on four compounds are retold here after patent US20170044150A1, “IDENTIFICATION OF COMPOUNDS WHICH INHIBIT ATG8-ATG3 PROTEIN-PROTEIN INTERACTION AND THEIR USE AS ANTIPARASITICAL AGENTS” (THE JOHNS HOPKINS UNIVERSITY, priority 2014, published 2017).

In the assay the target is PfAtg8-PfAtg3 interaction (Plasmodium falciparum, UniProt Q8IJK2). It is filed as binding, P. falciparum. The settings on record: 5 μM.
Chain of PfAtg8-PfAtg3 interaction (Q8IJK2 whole entry C32I/C119S/C122S): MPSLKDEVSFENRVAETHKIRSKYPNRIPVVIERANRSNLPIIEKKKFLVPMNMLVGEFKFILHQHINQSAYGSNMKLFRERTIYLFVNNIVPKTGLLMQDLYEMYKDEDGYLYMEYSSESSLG
Turning to `CSc1ccccc1C(=O)Nc1nc(-c2ccccn2)cs1` [Compound 2, 2-methylsulfanyl-N-(4-pyridin-2-yl-1,3-thiazol-2-yl)benzamide], the “inhibition of the PfAtg8-PfAtg3 interaction in primary SPR screen” value (from here on “inhibition”) is reported as “at least twenty five percent inhibition”.
Consider `Cc1ccc(-c2cc3c(SCC(=O)Nc4cc(C(F)(F)F)ccc4Cl)nccn3n2)cc1` [Compound 4, N-[2-chloro-5-(trifluoromethyl)phenyl]-2-[2-(4-methylphenyl)pyrazolo[1,5-a]pyrazin-4-yl]sulfanylacetamide], for which the “inhibition” value was “at least twenty five percent inhibition”.
`CN(C)c1ccc(N2C(N)=NC(N)=NC2(C)C)cc1` [Compound 5, 1-[4-(dimethylamino)phenyl]-6,6-dimethyl-1,3,5-triazine-2,4-diamine]: the “inhibition” value is “at least twenty five percent inhibition”.
Consider `Brc1ccc(Nc2nc3ccccc3nc2Nc2ccc(Br)cc2)cc1` [Compound 6, 2-N,3-N-bis(4-bromophenyl)quinoxaline-2,3-diamine], for which the “inhibition” value was “at least twenty five percent inhibition”.
